# Test results reported in PubChem BioAssay AID504832 (National Center for Advancing Translational Sciences (NCATS), 2011).
# The campaign covered roughly 310,000 compounds. About 18,000 (5.8%) were called active. The inconclusive results got no clear call from the source; some entries with a clear call stand among them for comparison. Calls come from the whole dose curve; as a rule, active = well fitted inhibition curve with a large enough effect; inconclusive = small, poorly fitted or top-dose-only effect, or another doubt; inactive = no such curve, though single readings can be large or run the other way. Potencies of inconclusive entries are left out as doubtful fits.
# Assay: Primary qHTS for delayed death inhibitors of the malarial parasite plastid, 48 hour incubation
# Conditions: P. falciparum luciferase growth in erythrocytes; series mostly up to 28.7 µM
# In short: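 Compounds are pin-transferred into medium, infected erythrocytes (2% hematocrit, 0.1% parasitemia final) are added, and plates sit one parasite generation at 37 C in 5% CO2. Detection reagent is then added and luminescence measured.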
# Potency is the fitted concentration of half-maximal effect; tags give direction and shape of the fitted curve.
row,SMILES,Potency
1,CCN(CC)S(=O)(=O)c1ccc2c(c1)CC(C(=O)N1CCCC1)N2C(C)=O (stereo not given),inactive
2,CCOCCCN(C)C1CCN(C(=O)c2oc3ccccc3c2NC(=O)COc2ccc(F)cc2)CC1,"inconclusive [inhibitor, partial curve]"
3,O=C(NC1CCC(O)CC1)c1cc(-c2ccc(Cl)cc2)nc2ccccc12 (stereo not given),"inconclusive [inhibitor, single point]"
4,CCN1CCCC1CNC(=O)C1CCCN(S(=O)(=O)c2cccc3nsnc23)C1 (stereo not given),"inconclusive [inhibitor, partial curve]"
5,CCOc1ccc(-n2ccnc(SCC(=O)Nc3cccc(OC)c3)c2=O)cc1,inactive
6,COc1cccc(/C=C/C(=O)OCC(=O)Nc2ccc(Cl)cn2)c1,inactive
7,CCC1CCCCN1C(=O)c1ccc([N+](=O)[O-])o1 (stereo not given),"inconclusive [inhibitor, partial curve]"
8,N#CCC(=O)N/N=C\c1cc(Br)ccc1OC/C=C/c1ccccc1,inactive
9,CCOC(=O)Cc1csc(NC(=O)Nc2ccc(OC(F)(F)F)cc2)n1,active: 11.7 µM
10,CCCCOc1ccc(Cc2c(O)nc(SC)[nH]c2=O)cc1,inactive
11,O=C1CSC(=Nc2ccc(O)cc2)N1c1ccc(O)cc1,"inconclusive [inhibitor, single point]"
12,O=C(Nc1nnc(SCC(=O)N2CCOCC2)s1)c1ccccc1,inactive
13,COc1ccccc1-c1nnc(-c2ccc(N3CCOCC3)cc2)o1,"inconclusive [inhibitor, single point]"
14,COC(=O)c1cc(C(=O)OC)cc(N2C(=O)CN=C2Nc2nc(C)cc(C)n2)c1,inactive
15,CCN1C(=O)C2(C(C#N)=C(N)Oc3cc(C)oc(=O)c32)c2ccccc21 (stereo not given),inactive
16,CC(C)(C)c1ccc(NC(=O)c2ccc(=O)[nH]n2)cc1,inactive
17,O=C(NCc1n[nH]c(=S)n1-c1ccc(Br)cc1)c1ccc(S(=O)(=O)N2CCOCC2)cc1,inactive
18,CC1CCC2(CC1)NC(=O)N(CC(=O)Nc1cccc(S(=O)(=O)N3CCCC3)c1)C2=O (stereo not given),"inconclusive [inhibitor, single point]"
19,O=C(C1=C(O)C(=O)N(c2ncccn2)C1c1cccc(Cl)c1)c1ccco1 (stereo not given),inactive
20,Cc1ccc(S(=O)(=O)N2CCN(C(=O)c3ccc(S(=O)(=O)N4CCCC4)cc3)CC2)cc1,"inconclusive [inhibitor, partial curve]"
21,O=C(CNCCC1=CCCCC1)Nc1ccccc1N1CCCCCC1,"inconclusive [inhibitor, single point]"
22,Cc1noc(C)c1COc1ccc(C(=O)NCCc2ccc(S(N)(=O)=O)cc2)cc1,inactive
23,CCCCCn1c(=O)[nH]c2cc(C(=O)NCCCN3CCC(C)CC3)ccc2c1=O,"inconclusive [inhibitor, single point]"
24,N#Cc1cccc(C(=O)Nc2cccc(S(=O)(=O)N3CCCC3)c2)c1,"inconclusive [inhibitor, single point]"
25,c1ccc(-c2ccccc2OCCCCN2CCCCC2)cc1,active: 10.4 µM

row,SMILES,Potency
1,COCCNC(=S)Nc1cc2oc3ccccc3c2cc1OC,"inconclusive [inhibitor, single point]"
2,Cc1ccc2c(c1)C1CN(C)CCC1N2S(=O)(=O)c1ccc(Oc2ccc([N+](=O)[O-])cc2)cc1 (stereo not given),active: 8.28 µM
3,CC(C)NC(=O)c1ccccc1NC(=O)Cc1ccc([N+](=O)[O-])cc1,"inconclusive [inhibitor, single point]"
4,COc1ccccc1NC(=O)CSc1nnc(Cc2cccn2C)n1-c1ccc(F)cc1,active: 10.4 µM
5,C=CCN(CC=C)C(=O)C(=O)c1cc(C)n(-c2ccc([N+](=O)[O-])cc2)c1C,"inconclusive [inhibitor, single point]"
6,CC(C)[C@H](NC(=O)c1ccccc1)C(=O)OCC(=O)/C=C1/N(C)c2ccccc2C1(C)C,inactive
7,O=C(c1ccco1)N1CCN(C(=O)C23CC4CC(CC(C4)C2)C3)CC1,inactive
8,CC1(C)CC(=O)C=C(NCC2CCCO2)C1 (stereo not given),inactive
9,CC1Cc2ccccc2N1C(=O)CSc1nnc(CNc2ccccc2)o1 (stereo not given),inactive
10,c1ccc2c(c1)oc1c(Nc3ccc4c(c3)OCO4)ncnc12,inactive
11,CN(C)c1cc[n+](CC(=O)Nc2cc(C(F)(F)F)ccc2Cl)cc1,active: 1.65 µM
12,CCCN1CCN(C(=S)Nc2sc(CC)cc2C(=O)OC)CC1,"inconclusive [inhibitor, single point]"
13,Cc1cccc(C)c1OCC(=O)Nc1ccc(N2CCOCC2)cc1,"inconclusive [inhibitor, partial curve]"
14,CC(C)C(C)(C#N)NC(=O)CSc1nc(C2CCCCC2)n(-c2ccccc2)n1 (stereo not given),"inconclusive [inhibitor, single point]"
15,Cc1cc(C)nc(SC2c3cccc4cccc(c34)C2NS(=O)(=O)c2ccccc2)n1 (stereo not given),"inconclusive [inhibitor, single point]"
16,O=C(CCSc1nc(-c2ccco2)cc(C(F)(F)F)n1)Nc1ccc2c(c1)OCO2,"inconclusive [inhibitor, single point]"
17,COc1ccccc1C1CN=NC12CCCc1ccccc1C2=O (stereo not given),active: 9.28 µM
18,COC(=O)N/N=C/c1cn(Cc2ccc(Cl)cc2Cl)c2ccccc12,"inconclusive [inhibitor, single point]"
19,CCn1ncc(Br)c1C(=O)Nc1ccc(F)cc1F,inactive
20,Cn1c(=O)c2c(nc(CN3CCc4ccccc4C3)n2Cc2ccc(Cl)cc2)n(C)c1=O,inactive
21,Cc1cccc(CN2C(=O)c3ccccc3Sc3ccc(C(=O)NCCCN4CCOCC4)cc32)c1,"inconclusive [inhibitor, partial curve, poor fit]"
22,NNc1ccc(Cc2ccc(Cl)cc2Cl)nn1,inactive
23,COc1ccc(N(Cc2ccccc2)S(=O)(=O)c2cccc(C(=O)NCC3CCCO3)c2)cc1 (stereo not given),"inconclusive [inhibitor, single point]"
24,Cc1sc2ncnc(SCC(=O)NC(=O)NCc3ccco3)c2c1C,inactive
25,CCOC(=O)c1cnc2nc(C)[nH]n2c1=O,inactive

row,SMILES,Potency
1,CCOC(=O)c1c(NC(=O)C2CC(Cl)=CCC2C(=O)O)sc2c1CC(C)(C)OC2 (stereo not given),inactive
2,Cc1ccc(CNC(=O)CN2C(=O)NC(C)(c3ccccc3Cl)C2=O)cc1 (stereo not given),"inconclusive [inhibitor, single point]"
3,CC1(C)CC(=O)C2=C(C1)C(c1cn(-c3ccccc3)nc1-c1ccccc1)C(C#N)=C(N)O2 (stereo not given),"inconclusive [inhibitor, single point]"
4,Cc1ccc(NC(=O)COC(=O)C2CC2)cc1Cl,inactive
5,O=[N+]([O-])c1cc([As](=O)(O)c2ccc(O)c([N+](=O)[O-])c2)ccc1O,active: 4.65 µM
6,Cc1c(Cl)cccc1NC(=O)C1Cc2ccccc2CN1C(=O)c1ccccc1 (stereo not given),inactive
7,O=C(c1ccc2c(c1)OCCO2)C1CCN(C(=O)c2ccc(F)cc2)CC1,"inconclusive [inhibitor, partial curve, poor fit]"
8,COc1ccc(CNC(=O)N[C@H](C(=O)O)C(C)C)cc1OC,inactive
9,O/C(=C\c1nc2ccccc2nc1/C=C(\O)c1ccccc1)c1ccccc1,inactive
10,COc1ccc(NC(=O)CSCC(=O)N(C)CCOc2ccc(Cl)cc2)cc1,"inconclusive [inhibitor, partial curve, poor fit]"
11,CN(C)c1ccc(-n2cccc2/C=C/[N+](=O)[O-])cc1,"inconclusive [inhibitor, single point]"
12,Cc1ccc(C(C(=O)NCC2CCCO2)N(Cc2ccccc2)C(=O)c2ccc(-c3ccccc3)[nH]2)o1 (stereo not given),active: 8.28 µM
13,O=C(CCCN1C(=O)/C(=C\c2cccs2)SC1=S)Nc1cccnc1,inactive
14,CCc1nc(SCC(=O)c2cccs2)c2oc3ccccc3c2n1,inactive
15,Cc1ccccc1OCC(=O)N1N=C(c2cccnc2)CC1(O)C(F)(F)F (stereo not given),"inconclusive [inhibitor, partial curve]"
16,O=C1C2=C(C(=O)c3ccccc31)C1O[C@](CCCCN3C(=O)c4ccccc4C3=O)(Cc3ccccc31)O2,"inconclusive [inhibitor, partial curve]"
17,COc1ccc(NC(=O)CN(C)C(=O)Cc2coc3cc(C)c(C)cc23)cc1,"inconclusive [inhibitor, single point]"
18,COc1cccc(NC(=O)CSc2ncnc3c2cnn3Cc2ccccc2)c1,inactive
19,Cc1ccc(CN2C(=O)C(C)(C)Oc3ccc(C(=O)N4CCCCC4)cc32)cc1,"inconclusive [inhibitor, partial curve, poor fit]"
20,CCn1c(=NC(=O)COc2ccccc2)sc2cccc(F)c21,inactive
21,Cc1ccccc1NC(=S)NC(=O)CCc1ccccc1,"inconclusive [inhibitor, single point]"
22,COc1ccc(C(=O)NCc2nnc(SCC(=O)NO)n2Cc2ccccc2)cc1,"inconclusive [inhibitor, partial curve, poor fit]"
23,CC1CCCCC12NC(=O)N(CC(=O)N1CCN(S(=O)(=O)c3cccs3)CC1)C2=O (stereo not given),"inconclusive [inhibitor, single point]"
24,O=C(NCC1OCCc2ccccc21)c1cc(COc2ccc(F)cc2Cl)on1 (stereo not given),inactive
25,Cc1cccc(-n2nc3c(c2NC(=O)c2ccc(Br)o2)CSC3)c1C,"inconclusive [inhibitor, single point]"
